Publication PMC4336329 (PLoS ONE, 2015)
In all, about 310,000 compounds went through this assay and about 14,000 (4.5%) showed an effect of 50% or more. The effect is printed as a negative number. This is one part of the list.

Target: human ether-à-go-go-related gene (hERG) potassium channel (human, UniProt Q12809)
Test: primary screen, population patch clamp on CHO cells stably expressing hERG
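Note: peak tail current of the secondary pulse compared with the same well before compound.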

Sequence of human ether-à-go-go-related gene (hERG) potassium channel (Q12809 whole entry, looked up): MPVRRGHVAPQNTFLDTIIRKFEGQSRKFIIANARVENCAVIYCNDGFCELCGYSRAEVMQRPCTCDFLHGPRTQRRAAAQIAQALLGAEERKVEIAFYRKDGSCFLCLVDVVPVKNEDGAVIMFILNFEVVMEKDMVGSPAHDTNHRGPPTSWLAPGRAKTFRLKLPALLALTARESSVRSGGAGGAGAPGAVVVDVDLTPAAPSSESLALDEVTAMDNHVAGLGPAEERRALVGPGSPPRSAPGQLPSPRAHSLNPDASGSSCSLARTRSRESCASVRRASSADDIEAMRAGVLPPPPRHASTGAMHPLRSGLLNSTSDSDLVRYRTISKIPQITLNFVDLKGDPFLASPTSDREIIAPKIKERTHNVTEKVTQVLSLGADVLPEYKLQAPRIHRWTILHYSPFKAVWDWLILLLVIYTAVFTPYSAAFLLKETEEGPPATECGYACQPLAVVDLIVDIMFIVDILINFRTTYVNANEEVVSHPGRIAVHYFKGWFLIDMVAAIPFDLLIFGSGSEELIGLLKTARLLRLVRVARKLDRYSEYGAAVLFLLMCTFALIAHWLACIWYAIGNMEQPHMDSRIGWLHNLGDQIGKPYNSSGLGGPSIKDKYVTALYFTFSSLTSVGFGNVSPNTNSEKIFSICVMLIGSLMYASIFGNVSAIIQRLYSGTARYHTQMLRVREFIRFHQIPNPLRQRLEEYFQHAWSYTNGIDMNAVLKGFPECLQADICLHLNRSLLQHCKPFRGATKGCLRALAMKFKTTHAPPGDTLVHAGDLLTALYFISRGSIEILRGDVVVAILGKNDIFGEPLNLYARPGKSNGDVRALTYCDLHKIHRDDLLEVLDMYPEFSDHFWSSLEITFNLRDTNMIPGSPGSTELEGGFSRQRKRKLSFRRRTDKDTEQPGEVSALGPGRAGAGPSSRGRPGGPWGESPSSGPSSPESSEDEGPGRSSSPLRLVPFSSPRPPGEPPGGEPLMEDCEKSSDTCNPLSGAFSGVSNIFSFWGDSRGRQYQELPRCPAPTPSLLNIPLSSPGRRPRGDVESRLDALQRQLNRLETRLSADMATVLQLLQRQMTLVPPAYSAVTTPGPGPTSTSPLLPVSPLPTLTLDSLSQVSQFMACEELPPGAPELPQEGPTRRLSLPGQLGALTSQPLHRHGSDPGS

Row | Compound | hERG current change (%, negative = inhibition) at 10uM
1 | Cc1cccc(/C=N/NC(=O)NC23CC4CC(CC(C4)C2)C3)n1 | 2%
2 | COc1ccc(CNC(=O)c2sccc2-c2ccccc2)cc1OC | 7.89%
3 | Cc1ccc(-n2cc(CNCCc3cscn3)c(-c3ccc(F)cc3)n2)cc1 | -59%
4 | Cc1ccc(CNC(=O)COC(=O)CSc2cc(C)c(Br)cc2C)cc1 | 3.11%
5 | CC(=O)Nc1ccc(S(=O)(=O)NCCCc2ccccc2)cc1 | 5.64%
6 | COC(=O)N/N=C/c1cc(Cl)cc(Cl)c1OCc1ccccc1 | 17.2%
7 | Fc1ccccc1-n1cn[nH]c1=S | 30.6%
8 | CCCNc1nc2c(c(=O)n(C)c(=O)n2C)n1Cc1cccc(C)c1 | -20.6%
9 | COc1ccc(NC(=O)CN(C)CC(=O)NC2CCC(C)CC2)cc1 (stereo not drawn) | 0.408%
10 | O=C1N=c2ccccc2=C1c1[nH]c(=S)[nH]c1O | 14.7%
11 | CN(C)S(=O)(=O)c1cccc(C(=O)C2=C3SC=C(c4ccccc4)N3CC2)c1 | -10.1%
12 | CCOC(=O)c1c(C)nc2c(c1C)c(=O)oc1ccccc12 | -1.92%
13 | CN1c2ccccc2C2(C)CCCC3=Cc4cc([N+](=O)[O-])cc([N+](=O)[O-])c4OC312 (stereo not drawn) | 1.85%
14 | CC(C)N(Cc1c(O)ccc2c(=O)c(-c3ccc(Cl)cc3)coc12)C(C)C | -28.2%
15 | CC(=O)Nc1ccc(NC(=O)c2cc(C)nn2-c2ccccc2)cc1 | 4.8%
16 | COCCN(C(=O)/C=C/c1ccccc1)c1nnc(-c2cccnc2)s1 | -9.61%
17 | COc1ccc(C(=O)Nc2ccccc2NC(=O)c2ccco2)c(OC)c1 | -21.9%
18 | Cc1ccnc(NC(=O)c2ccc(COc3c(F)c(F)cc(F)c3F)o2)c1 | 13.3%
19 | COc1cccc(C2/C(=C(/O)c3ccc4c(c3)OCO4)C(=O)C(=O)N2CCN2CCOCC2)c1 (stereo not drawn) | 20.1%
20 | COc1ccc(C(C(=O)NC2CCCC2)N(CCN2CCOCC2)C(=O)c2ccc(OC)c(OC)c2)cc1 (stereo not drawn) | -0.415%
21 | CCOCCCNc1nc(C(F)(F)F)nc2c1nnn2Cc1ccccc1Cl | 9.1%
22 | COc1ccc(S(=O)(=O)NCC(=O)N(Cc2ccco2)C(C(=O)NC(C)(C)C)C(C)C)cc1 (stereo not drawn) | 7.08%
23 | O=C(CSc1nnnn1-c1cccnc1)Nc1cccc(Cl)c1 | 3.53%

Row | Compound | hERG current change (%, negative = inhibition) at 10uM
24 | CCN(Cc1cnn(C)c1)Cc1nc(Cc2ccccc2Cl)no1 | -6.26%
25 | CC(C)(C)c1ccc(S(=O)(=O)NCc2ccc(C(=O)NCC3CCCO3)cc2)cc1 (stereo not drawn) | 13.8%
26 | CCn1c(SCC(=O)Nc2ccccc2F)nnc1-c1ccoc1C | -30.1%
27 | CCOc1ccc(CN(C)C(=O)CN2C(=O)NC(c3ccccc3)(c3ccccc3)C2=O)cc1 | 3.31%
28 | O=C(c1csc2c1CCCC2)N1CCCCC1 | 18.5%
29 | N#Cc1ccc(-c2ccccc2)nc1SCCN1CCOCC1 | -23.7%
30 | Cc1ccc(NC(=O)Cc2ccc(-n3cccc3)cc2)c(C)c1 | 0.774%
31 | O=C(NCc1cccnc1)c1ccc2c(=O)n(CCCN3CCCC3=O)c(=S)[nH]c2c1 | -1.47%
32 | Cc1ccc(S(=O)(=O)N2C(=O)CCC2C(=O)Nc2ccc3c(c2)OCCO3)cc1 (stereo not drawn) | 10.6%
33 | COc1cccc(CNCCc2c[nH]c3ccccc23)c1 | -14.2%
34 | COc1ccc2nc(C)cc(NCc3ccc(F)cc3)c2c1 | -61.6%
35 | COc1cc(C#N)ccc1OCC(=O)NCc1cccs1 | -1.28%
36 | CC(C)(CCO)Nc1ncnc2onc(-c3ccc(F)cc3)c12 | 7.29%
37 | CCOc1ccccc1OCCCC(=O)NC1CCCc2ccccc21 (stereo not drawn) | -1.35%
38 | O=C(CN1C(=O)NC2(CCCCCC2)C1=O)c1cccs1 | -5.01%
39 | Cc1nn(C)cc1S(=O)(=O)N1CCN(Cc2ccccc2Cl)CC1 | 3.33%
40 | O=C1c2ccccc2S(=O)(=O)c2cc(C(=O)N3CCN(c4c(Cl)cncc4Cl)CC3)ccc21 | -38.8%
41 | CC(C)(C)c1ccc(C(=O)Nc2ncn[nH]2)cc1 | 12.2%
42 | O=C(O)c1ccc2c(c1)ncn2C1CCCCC1 | 5.84%
43 | C/C(=N\NC1=NCCN1)c1ccc(N)c([N+](=O)[O-])c1 | -15.2%
44 | CCOC(=O)CNc1ncnc2nc[nH]c12 | 9.53%
45 | O=C(NCCCNCc1ccccc1)c1ccccn1.O=C(O)/C=C/C(=O)O | -7.1%
